Data as given in PMC7819943, “Rice protein-binding microarrays: a tool to detect cis-acting elements near promoter regions in rice”.
The list shows a part of the results.

The sequences below were run against T1, OsWOX13 (Oryza sativa, UniProt Q5QMM3 1-267) (assay: protein-binding microarray (RPBM); PBS, 2% BSA, 51.3 ng/ul salmon testes DNA, 50 uM zinc acetate, 200 nM TF, 25 C, 1 h; high values mean tight binding). Settings: protein: recombinant; tags: N-terminal polyhistidine and DsRed monomer fusion (pET32a); label: CyDye5-dUTP incorporated in the synthesized complementary strand; 3' TTTTT single-stranded linker to array surface; dsDNA, one strand shown.
T1 sequence: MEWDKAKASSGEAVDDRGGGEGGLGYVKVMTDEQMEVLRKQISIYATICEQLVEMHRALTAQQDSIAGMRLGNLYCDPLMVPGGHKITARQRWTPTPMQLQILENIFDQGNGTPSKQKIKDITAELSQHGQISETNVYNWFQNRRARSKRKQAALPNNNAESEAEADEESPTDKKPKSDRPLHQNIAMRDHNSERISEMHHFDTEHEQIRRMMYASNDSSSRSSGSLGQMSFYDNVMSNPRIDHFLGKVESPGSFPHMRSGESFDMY
How it was run: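 The binding signal is fluorescence intensity per array feature (arbitrary units). Readings came from an Axon 4000B scanner after a washed, 2% BSA-blocked, double-stranded custom Agilent array had been incubated for 1 h at 25 °C with 200 nM protein and 50 µM zinc acetate. The protein was a Ni–NTA-purified transcription factor fused N-terminally to polyhistidine and DsRed, expressed in E. coli BL21-CodonPlus.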

Row | Sequence | binding signal
1 | ATTGATTTCTGATATGTTGAGCAAGGGCATTCCTCCTCCTCGGAGTCACCTAGTGCAG | 10900 fluorescence intensity (a.u.)
2 | CCAAAATTGCTCCGACATATATTGATCTTGGCAAAGTTACCGGAGTCACCTAGTGCAG | 5880 fluorescence intensity (a.u.)
3 | GGAGGTTGACAGAAAACTGGATGGAAGTGGCATGGTTCCACGGAGTCACCTAGTGCAG | 5700 fluorescence intensity (a.u.)
4 | TCTATATTAATTATGATTTTGTTCGAAGATAAGTAATTATCGGAGTCACCTAGTGCAG | 18900 fluorescence intensity (a.u.)
5 | CTCATGTGAATGATTTGTCTGCATTGCTAGGTTGTGTCAGCGGAGTCACCTAGTGCAG | 7510 fluorescence intensity (a.u.)
6 | GTAATTGGTAAACTGATACTAATATGATCCATATGGTCCACGGAGTCACCTAGTGCAG | 34000 fluorescence intensity (a.u.)
7 | CGCCAGGTCCAAGCACCGTTGATTGCTTCAGTGTCCGTCACGGAGTCACCTAGTGCAG | 3880 fluorescence intensity (a.u.)
8 | TGAACTGGACCTAATCAACCAGTAATCACTGGACAGAAAACGGAGTCACCTAGTGCAG | 3290 fluorescence intensity (a.u.)
9 | TTATGATATGTATCCAATCAAAATAAGATGAAGAGACTATCGGAGTCACCTAGTGCAG | 10100 fluorescence intensity (a.u.)
10 | ATTATATCTTTCAATCATTTGATTTGATTTTCTTTCCCATCGGAGTCACCTAGTGCAG | 19000 fluorescence intensity (a.u.)
11 | TGGCTGATTGTAGATTAAATTGGGTTGACACCTTTGCTATCGGAGTCACCTAGTGCAG | 33800 fluorescence intensity (a.u.)
12 | ACAACGGTATCAGGAGTCGGAACAGCAACTTTCTATCGTCCGGAGTCACCTAGTGCAG | 21100 fluorescence intensity (a.u.)
13 | TGGCGGATTTTGTAATTTGTTGTTATTAGACTACGTTTAACGGAGTCACCTAGTGCAG | 6260 fluorescence intensity (a.u.)
14 | GCCTTGATTATCACCTCCTGTACAAGTGTTAGATACTTCTCGGAGTCACCTAGTGCAG | 36100 fluorescence intensity (a.u.)
15 | CCTGATAATGATGATGAGTTCAGCATCGAGTTAGCTCTCACGGAGTCACCTAGTGCAG | 19700 fluorescence intensity (a.u.)
16 | ATTAATTATGTAATATATGTTTATAGATAATTATTGTATGCGGAGTCACCTAGTGCAG | 46800 fluorescence intensity (a.u.)
17 | GTCAAACTTTAACTGAAATCATAGAAAGGAAATCGTCATGCGGAGTCACCTAGTGCAG | 4890 fluorescence intensity (a.u.)
18 | TCATGAATGATTGTGGTGGATACATTGAAGCATGATCTAACGGAGTCACCTAGTGCAG | 19100 fluorescence intensity (a.u.)
19 | TGAACTGGGTTCATCTGATGATTGGTGTGACTTGGGAAGACGGAGTCACCTAGTGCAG | 4820 fluorescence intensity (a.u.)
20 | TAATGTGAGTGTTTAAATTTATATTAAAGATACATACACGCGGAGTCACCTAGTGCAG | 3320 fluorescence intensity (a.u.)
21 | ATTTGTGTAATTTATTGGTAGATATCGTAAAAGCGTGTAACGGAGTCACCTAGTGCAG | 11600 fluorescence intensity (a.u.)

Row | Sequence | binding signal
22 | GTACTAGTATTATTGATTGATACACTTGTGATGTCATGCCCGGAGTCACCTAGTGCAG | 30900 fluorescence intensity (a.u.)
23 | TTGCATAAACTTTCTAAATTAGACAAATAGTTAAACATGTCGGAGTCACCTAGTGCAG | 8620 fluorescence intensity (a.u.)
24 | GGCAGGGGTAATAATTAGTTTCATATCAAAATTCATCGATCGGAGTCACCTAGTGCAG | 5740 fluorescence intensity (a.u.)
25 | TACGCAATAATTTATATATAAATTATATGTATATACTAATCGGAGTCACCTAGTGCAG | 23400 fluorescence intensity (a.u.)
26 | TTTAAACTACTACTTAATTAACTATATGCTAATGAGTCGCCGGAGTCACCTAGTGCAG | 18300 fluorescence intensity (a.u.)
27 | ACAAAATTAGCTTGTAACGTATATACTTGTGTTGTTTGTTCGGAGTCACCTAGTGCAG | 6670 fluorescence intensity (a.u.)
28 | ACTAAATGAGATCACTGATGACACAACACATATGACTCTTCGGAGTCACCTAGTGCAG | 15500 fluorescence intensity (a.u.)
29 | CCCGATTAACAAATCAACCCATATGCTTCCCACTCTCCATCGGAGTCACCTAGTGCAG | 21700 fluorescence intensity (a.u.)
30 | TCCATCCGGATTGATTGTACTTATATGATTAGTATTTTAGCGGAGTCACCTAGTGCAG | 46700 fluorescence intensity (a.u.)
31 | TTTGGAAATTATATTCAAATATAATTTCCTTCTAAACTCTCGGAGTCACCTAGTGCAG | 5350 fluorescence intensity (a.u.)
32 | CAATACATGAATGATTGCTAATTTGAAGCATATGATTAGACGGAGTCACCTAGTGCAG | 27500 fluorescence intensity (a.u.)
33 | TTGATTGGTAGCTAGCTAGGCTTCCGCGCGCGGCGACCCACGGAGTCACCTAGTGCAG | 30100 fluorescence intensity (a.u.)
34 | GGCATATCATTGACAGGAATAAGTGTCTTCCGTTGCTTGACGGAGTCACCTAGTGCAG | 9980 fluorescence intensity (a.u.)
35 | GACTAAATTTTAATCCCTATCACATCGGATATTTGACACTCGGAGTCACCTAGTGCAG | 7230 fluorescence intensity (a.u.)
36 | TCCGATTATTATTAATAATTAATAATAATATCATTTTCATCGGAGTCACCTAGTGCAG | 25400 fluorescence intensity (a.u.)
37 | TCTACGTTTAATATTTATAATTAGTGTCCAAACATCCGATCGGAGTCACCTAGTGCAG | 5510 fluorescence intensity (a.u.)
38 | AGTATAATTGCAATATAATTTTACTATAACTATAATGTAACGGAGTCACCTAGTGCAG | 9150 fluorescence intensity (a.u.)
39 | GTCCATGCTGATTAGAATGGGTGCTCTTCCGCTACTTGTTCGGAGTCACCTAGTGCAG | 17200 fluorescence intensity (a.u.)
40 | GTTAATTATTTAGAATAAAGATATCCATAGATACAATATTCGGAGTCACCTAGTGCAG | 9980 fluorescence intensity (a.u.)
41 | GTTGATTTGCATCGGCAAGATCAACAACCCACGGAGAGGTCGGAGTCACCTAGTGCAG | 18700 fluorescence intensity (a.u.)
42 | AATCAATCAAGAGTCTTCATCAAAGCTCGGATTACTTTGGCGGAGTCACCTAGTGCAG | 38100 fluorescence intensity (a.u.)
